# In the supplement of paper PMC12009370:
# The other results are listed elsewhere or left out. Repeats are few or missing, and single values can be far off.
# How the values were obtained:
# IMR-32 [1] = test: drug sensitivity score (DSS), single drug with vehicle (DSS (score)); higher = more cytotoxic; extreme values may be limits of the assay; conditions: 72 h; co-treatment: vehicle (DMSO)
# SK-N-AS [2] = test: as above; conditions: 72 h; co-treatment: vehicle (DMSO)
# SK-N-AS [3] = test: drug sensitivity score (DSS) in combination with SL-176 (DSS (score)); higher = more cytotoxic; extreme values may be limits of the assay; conditions: 72 h; co-treatment: SL-176 11.2 uM (IC25 in IMR-32)
# IMR-32 [4] = test: as above; conditions: 72 h; co-treatment: SL-176 11.2 uM (IC25 in IMR-32)
# SK-N-AS [5] = test: drug sensitivity score (DSS) in combination with GSK2830371 (DSS (score)); neuroblastoma lines; SL-176 and GSK2830371 are WIP1 inhibitors; higher = more cytotoxic; extreme values may be limits of the assay; conditions: 72 h; co-treatment: GSK2830371 at IC25 in IMR-32
# IMR-32 [6] = test: as above; conditions: 72 h; co-treatment: GSK2830371 at IC25 in IMR-32
# 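For drug sensitivity score (DSS) in combination with GSK2830371 in this document: neuroblastoma cells in 384-well plates, each compound at five concentrations, luminescence read-out, DSS derived from fitted concentration-response curve combining IC50 with minimum and maximum inhibition.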
# 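For drug sensitivity score (DSS) in combination with SL-176 in this document: cells in 384-well plates, luminescence read-out, each screening drug at five concentrations, DSS derived from the fitted concentration-response curve combining IC50 with minimum and maximum inhibition.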
# 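For drug sensitivity score (DSS), single drug with vehicle in this document: 384-well screen with five concentrations per compound and a luminescence read-out, DSS computed from the fitted dose-response curve combining IC50 with minimum and maximum inhibition.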
Compound,drug sensitivity score (IMR-32 [1]),drug sensitivity score (SK-N-AS [2]),drug sensitivity score (SK-N-AS [3]),drug sensitivity score (IMR-32 [4]),drug sensitivity score (SK-N-AS [5]),drug sensitivity score (IMR-32 [6])
CC(C)Nc1cc(-c2c[nH]c(C(=O)N[C@H](CO)c3cccc(Cl)c3)c2)c(Cl)cn1 [Ulixertinib],2.8,16.3,16.5,4.2,16.4,6.1
CCN(CC)Cc1ccc2cc(COC(=O)Nc3ccc(C(=O)NO)cc3)ccc2c1 [Givinostat],13.2,8.8,8.1,14.2,8.4,16.3
CN1CC[C@@H](NC(=O)Nc2ccc(C#N)cc2)C[C@@H]1c1nc2ccccc2[nH]1 [Glasdegib],0,0,0,0,0,0
CC[C@H](Nc1ncnc2[nH]cnc12)c1nc2cccc(F)c2c(=O)n1-c1ccccc1 [Idelalisib],0,0.1,0.1,0,0.2,3.8
Cn1c(=O)n(-c2ccc(C(C)(C)C#N)cc2)c2c3cc(-c4cnc5ccccc5c4)ccc3ncc21 [Dactolisib],12.8,16.8,16.6,13.5,16.7,15.8
CC[C@]12C=CCN3CC[C@@]4(c5cc([C@@]6(C(=O)OC)C[C@@H]7C[C@@H](C(C)(F)F)CN(Cc8c6[nH]c6ccccc86)C7)c(OC)cc5N(C)[C@H]4[C@@](O)(C(=O)OC)[C@@H]1OC(C)=O)[C@@H]32 [Vinflunine],7.4,7.8,7.4,10.1,7.8,6
C[C@@H](C(=O)O)c1ccc(-c2ccccc2)c(F)c1 [Tarenflurbil],0,0,3.6,0.2,0,0
CO[C@H]1C(=O)[C@]2(C)[C@@H](OC)C[C@H]3OC[C@@]3(OC(C)=O)[C@H]2[C@H](OC(=O)c2ccccc2)[C@]2(O)C[C@H](OC(=O)[C@H](O)[C@@H](NC(=O)OC(C)(C)C)c3ccccc3)C(C)=C1C2(C)C [Cabazitaxel],45,28.4,28.3,43.6,28.7,43.7
CNC(=O)c1cccc2cc(Oc3ccnc4cc(OCC5(N)CC5)c(OC)cc34)ccc12 [Lucitanib],7.5,1.3,1,7.6,0.7,8.6
COc1cc(Nc2ncc(F)c(Nc3ccc4c(n3)NC(=O)C(C)(C)O4)n2)cc(OC)c1OC [Tamatinib],6.3,3.3,1.5,1.9,3.1,10.2
S=c1[nH]cnc2nc[nH]c12 [Mercaptopurine],3.8,6.9,7.4,8,7.2,9.4
COC(=O)c1ccc2c(c1)NC(=O)/C2=C(\Nc1ccc(N(C)C(=O)CN2CCN(C)CC2)cc1)c1ccccc1 [Nintedanib],4.9,4.8,7.6,6.8,7.6,8.2
CC(C)(O)CNc1nc(Nc2ccnc(C(F)(F)F)c2)nc(-c2cccc(C(F)(F)F)n2)n1 [Enasidenib],0,0.4,0.8,0.3,0.3,0
COc1cc2ncnc(Oc3cccc(NC(=O)Nc4cc(C(C)(C)C(F)(F)F)on4)c3)c2cc1OC,0,3.8,3,0.2,5.1,0
CCCN(CCC)C(=O)C1=Cc2ccc(-c3ccc(C(=O)N4CCCC4)cc3)cc2N=C(N)C1 [Motolimod],0.1,2.4,2.7,1.9,3.6,5.5
C/C=C1\NC(=O)[C@H]2CSSCC/C=C/[C@H](CC(=O)N[C@H](C(C)C)C(=O)N2)OC(=O)[C@H](C(C)C)NC1=O [Romidepsin],33.4,27.1,25.7,33.8,28.3,29.5
COc1cc(CCc2cc(NC(=O)c3ccc(N4CC(C)NC(C)C4)cc3)n[nH]2)cc(OC)c1 (stereo not given),0,0,0,0,0,3.5
Cc1cccc(-c2nn3c(c2-c2ccnc4ccc(C(N)=O)cc24)CCC3)n1 [Galunisertib],0,0,0,0,0,0
O=C(NOCCO)c1ccc2cncn2c1Nc1ccc(I)cc1F,3.3,7.1,6.4,3,6.6,1.5
CCCCNc1ncc(C(=O)NCc2ccc(-n3ccnc3)cc2)c(NC2CCC(O)CC2)n1 (stereo not given),0,1.1,1.9,0,1.6,0.5
O=C(Nc1ccc(OC(F)(F)Cl)cc1)c1cnc(N2CC[C@@H](O)C2)c(-c2cc[nH]n2)c1 [Asciminib],0,0,0,0,0,0.8
NC(=S)N/N=C/c1ncccc1N [Triapine],11.3,1.4,2,9.4,1.1,15
O=C(CCCCCCNC(=O)c1cnc(N(c2ccccc2)c2ccccc2)nc1)NO [Rocilinostat],9.7,8.8,7.6,10.5,8.2,12.8
CC(=O)O[C@]1(C(C)=O)CC[C@H]2[C@@H]3C=C(C)C4=CC(=O)CC[C@]4(C)[C@H]3CC[C@@]21C [Megestrol acetate],2,0,0,0,0,0
CC(O)c1cc(C(=O)N[C@@H](C)Cn2ccc(-c3ccc(C#N)c(Cl)c3)n2)n[nH]1 (stereo not given in full),0,0.9,0.9,0,1.1,0
